Measured values from the supplement of paper PMC4723716.
± gives the uncertainty stated by the source. Over roughly 9,900 compounds, “viability index relative to DMSO control” has its median near 1; the lowest 2% begin near 0.85. This is one part of the list.

Tested on: Plasmodium falciparum NF54 stage V gametocytes
Experiment: viability index relative to DMSO control (fraction); higher = less gametocyte killing
Conditions: 2.5 µM, incubation time: 72 h
Outline: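 Viability index is the count of red-stained particles in a well divided by the plate mean of solvent-only wells. Particles of 20–70 µm2 were counted in one imaged field per well after one to two hours with 3 µl of 2.5 µM MitoTracker Red CMXRos and 0.13% saponin. Before staining, P. falciparum NF54 stage V gametocytes in serum-free medium (0.75% gametocytemia, 1.25% hematocrit, 10 µl, 1,536-well plates) were kept with compound at 2.5 µM for 72 hr at 37°C under low oxygen.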

[1] = library set: Broad Institute DOS

| Structure (SMILES) | viability index [1] | viability index (library set: Broad Institute Blood Stage) |
| --- | --- | --- |
| Cc1ccccc1S(=O)(=O)N1C[C@@H](O)COC[C@H]2O[C@@H](CC(=O)N3CCCCC3)CC[C@@H]21 | 0.936 ± 0.075 | – |
| O=C(c1cccc(F)c1)N1CCCCN2[C@@H](CO)[C@@H](c3ccc(C#CC4(O)CCCC4)cc3)[C@@H]2C1 | 1.04 ± 0.095 | – |
| CCCNC(=O)N1C[C@]2(CCN(CC2)S(=O)(=O)CC)c2c([nH]c3cc(OC)ccc23)[C@@H]1CO | 1 ± 0.059 | – |
| CC(C)CC#Cc1ccc([C@H]2[C@@H](CO)N3C(=O)CN(C(=O)c4ccccn4)C[C@H]23)cc1 | 1.061 ± 0.0031 | – |
| CN(C)C(=O)C[C@@H]1CC[C@@H]2[C@H](COC[C@@H](O)CN2C(=O)C2CCOCC2)O1 | 1.16 ± 0.017 | – |
| COc1ccc(C#Cc2ccc3c(c2)[C@@H]2[C@@H](CCN2C(=O)c2cnccn2)[C@@H](CO)N3)cc1 | 1.02 ± 0.043 | – |
| COc1ccc(NC(=O)N2C[C@H](O)COC[C@@H]3O[C@@H](CC(=O)N4CCCCC4)CC[C@H]32)cc1 | 1.05 ± 0.061 | – |
| CN(C)c1ccc2c(c1)[C@@H]1C[C@@H](CC(=O)NCc3ccccn3)O[C@H](CO)[C@@H]1O2 | 1.12 ± 0.03 | – |
| CCCNC(=O)N(C)C[C@H]1Oc2ncc(C#CC3CCCCC3)cc2C(=O)N([C@@H](C)CO)C[C@H]1C | 0.9399 ± 0.0019 | – |
| CCN1[C@@H]2c3ccc(C4=CCCC4)c(=O)n3C[C@@H]2[C@@H](CO)[C@@H]1C(=O)NC1Cc2ccccc2C1 | 1.06 ± 0.018 | – |
| O=C(C1CCOCC1)N1C[C@H]2[C@@H](c3ccccc31)[C@@H](CO)N2C(=O)Cc1ccccn1 | 0.994 ± 0.19 | – |
| CCS(=O)(=O)Nc1ccc2c(c1)C(=O)N(C)C[C@H](OC)[C@@H](C)CN(CC1CCCCC1)[C@H](C)CO2 | 0.997 ± 0.048 | – |
| COCC(=O)N1C[C@H](C)[C@@H](OC)CN(C)C(=O)c2ccc(NC(=O)Nc3cccc(F)c3)cc2OC[C@H]1C | 0.972 ± 0.042 | – |
| C/C=C/c1ccccc1[C@H]1[C@@H](C#N)N(c2ncc(CC)s2)[C@@H]1CO | 1.08 ± 0.038 | – |
| Cc1ccc(-c2ccc([C@@H]3[C@H](CO)N4C(=O)CN(C(=O)NC(C)C)C[C@@H]34)cc2)cc1 | 1.03 ± 0.011 | – |
| COc1cccc(CNC(=O)C[C@H]2CC[C@H]3[C@@H](COc4ccc(NC(=O)c5cccs5)cc4C(=O)N3C)O2)c1 | 1.05 ± 0.11 | – |
| CCCN(C)C[C@@H]1Oc2ncc(-c3cccc(OC)c3)cc2C(=O)N([C@H](C)CO)C[C@@H]1C | 0.691 ± 0.3 | – |
| CC(C)COC(=O)N(C)C[C@H]1OCc2ccccc2-c2ccccc2C(=O)N([C@H](C)CO)C[C@@H]1C | 0.995 ± 0.013 | – |
| O=C(NC[C@@H]1[C@H](c2ccccc2)[C@@H](CO)N1C(=O)Cc1ccncc1)C1CCC1 | 1.04 ± 0.055 | – |
| O=C(Nc1cc(F)ccc1F)N[C@@H]1CC[C@@H](CC(=O)N2CCc3ccccc3C2)O[C@@H]1CO | 0.97 ± 0.077 | – |
| COc1cccc(CN2[C@@H]3CNC[C@H]2[C@H]3c2ccc(/C=C/c3ccccc3)cc2)c1 | 0.998 ± 0.049 | – |
| C[C@@H]1CCCCO[C@H](CN(C)Cc2ccncc2)[C@@H](C)CN([C@H](C)CO)C(=O)c2cc(NS(=O)(=O)c3ccc(Cl)cc3)ccc2O1 | 0.996 ± 0.012 | – |
| O=C(C[C@H]1C=C[C@@H](NC(=O)Nc2cccc(F)c2)[C@@H](CO)O1)NCC1CCCCC1 | 0.934 ± 0.15 | – |

| Structure (SMILES) | viability index [1] | viability index (library set: Broad Institute Blood Stage) |
| --- | --- | --- |
| CO[C@@H]1CN(C)C(=O)c2ccc(NS(C)(=O)=O)cc2OC[C@@H](C)N(C(=O)CN(C)C)C[C@@H]1C | 0.987 ± 0.014 | – |
| COc1ccccc1S(=O)(=O)N1[C@@H]2CNC[C@H]1[C@@H]2c1ccc(-c2ccncc2)cc1 | 1.06 ± 0.032 | – |
| COc1ccccc1-c1ccc([C@@H]2[C@@H](CO)N3CCCCN(C(=O)c4cccnc4)C[C@@H]23)cc1 | 0.998 ± 0.031 | – |
| O=S(=O)(c1cccs1)N1CCCCN2[C@H](C1)[C@@H](c1ccc(/C=C/c3ccccc3)cc1)[C@@H]2CO | 1.008 ± 0.0086 | – |
| O=C1CN(S(=O)(=O)c2cccc(F)c2)C[C@H]2[C@@H](c3ccc(C4=CCCC4)cc3)[C@H](CO)N12 | 1.03 ± 0.027 | – |
| O=C(C[C@H]1CC[C@@H]2NC[C@@H](O)COC[C@H]2O1)NC1Cc2ccccc2C1 | 1.04 ± 0.07 | – |
| Cc1ccc(-c2ccc([C@@H]3[C@@H]4CN(Cc5ccccc5F)C[C@H]3N4)cc2)cc1 | 0.929 ± 0.04 | – |
| N#C[C@@H]1N[C@@H](CO)[C@H]1c1ccc(-c2cccc(F)c2)cc1 | 1.15 ± 0.052 | – |
| CN1C(=O)c2cc(NC(=O)c3ccc(C#N)cc3)ccc2OC[C@H]2O[C@@H](CC(=O)NC3Cc4ccccc4C3)CC[C@@H]21 | 0.993 ± 0.13 | – |
| Cc1ccc(S(=O)(=O)N[C@H]2CC[C@H](CC(=O)NCc3ccncn3)O[C@H]2CO)cc1 | 0.994 ± 0.04 | – |
| COc1ccccc1C#Cc1ccc2c(c1)[C@@H]1[C@@H](CCN1C(=O)c1ccncc1)[C@@H](CO)N2 | 1.02 ± 0.093 | – |
| O=C(NCC[C@@H]1CC[C@H](NC(=O)C2CCOCC2)[C@H](CO)O1)c1cc(Cl)cc(Cl)c1 | 1.01 ± 0.1 | – |
| COc1ccc(CN2C[C@]3(CN(C3)C(C)=O)c3c([C@@H]2CO)n(C)c2cc(OC)ccc32)cc1 | 0.965 ± 0.028 | – |
| COCC#Cc1ccc([C@@H]2[C@@H](C#N)N(C(=O)Cc3ccccc3)[C@@H]2CO)cc1 | 1.03 ± 0.021 | – |
| C[C@@H]1CN([C@@H](C)CO)S(=O)(=O)c2ccc(-c3ccncc3)cc2O[C@@H]1CN(C)S(C)(=O)=O | 1.01 ± 0.067 | – |
| O=C(CN1CCOCC1)N1CCCCN2[C@H](CO)[C@H](c3ccc(Br)cc3)[C@@H]2C1 | 0.945 ± 0.057 | – |
| C[C@H](CO)N1C[C@H](C)[C@H](CN(C)S(=O)(=O)c2ccc(C(F)(F)F)cc2)OCc2ccccc2-c2c(n(C)c3ccccc23)C1=O | – | 0.693 ± 0.051 |
| CO[C@H]1CN(C)C(=O)c2cc(NC(=O)Nc3c(C)noc3C)ccc2OC[C@H](C)NC[C@H]1C | 0.997 ± 0.014 | – |
| CC(C)NC(=O)Nc1ccc2c(c1)C(=O)N([C@H](C)CO)C[C@H](C)[C@@H](CN(C)C(=O)C1CCCCC1)OCCCC[C@H](C)O2 | 1.19 ± 0.011 | – |
| C[C@H](CO)N1C[C@H](C)[C@H](CN(C)C(=O)[C@H](Cc2ccccc2)N(C)C)OCc2ccccc2-c2c(n(C)c3ccccc23)C1=O | 1 ± 0.017 | – |
| N#C[C@H]1[C@H](c2ccc(C3=CCCCC3)cc2)[C@@H](CO)N1C(=O)CN1CCOCC1 | 1.11 ± 0.05 | – |
| COc1cccc(CN2C[C@]3(CCN(CC3)S(C)(=O)=O)c3c([C@H]2CO)n(C)c2cc(OC)ccc32)c1 | 1.03 ± 0.018 | – |
| COc1ccc(S(=O)(=O)Nc2ccc3c(c2)C(=O)N([C@H](C)CO)C[C@H](C)[C@@H](CN(C)Cc2ccc(C(F)(F)F)cc2)OCCCC[C@H](C)O3)cc1 | 1.07 ± 0.051 | – |
